Assay results: a collection of fitness landscapes (doi:10.1016/j.celrep.2020.107928)
In all, about 81,000 sequences were measured (“one-hybrid fitness for binding parS DNA”: median about -0.17, highest 2% from about 0.51 on). The list shows a part of the results.

B1: Caulobacter ParB omega fusion; a variant is named by its letters at X, in order, B8GW30 (parent)
chain: MESVVVGEPGMSEGRRGLGRGLSALLGEVDAAPAQAPGEQLGGSREAPIEILQRNPDQPRRTFREEDLEDLSNSIREKGVLQPILVRPSPDTAGEYQIVAGERAWRAAQRAGLKTVPIMVRELDDLAVLEIGIIENVQRADLNVLEEALSYKVLMEKFERTQENIAQTIGKSXSHVANXMRLLXLPDEVQSYLVSGELTAXHARAIAAAADPVALAKQIIEGGLSVRETEALARKAPNLSAGKSKGGRPPRVKDTDTQALESDLSSVLGLDVSIDHRGSTGTLTITYATLEQLDDLCNRLTRGI

Variants of: B1
Assay: one-hybrid fitness for binding parS DNA (scaled: cognate 1, non-cognate 0); higher = stronger binding
Details: with parS DNA site
Outline: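 Fitness is the rescaled log change in variant-to-wild-type read ratio, measured by Illumina sequencing of plasmids before and after bacterial one-hybrid selection. The scale puts cognate at 1 and non-cognate at 0. Selection of Caulobacter ParB libraries, four specificity codons randomised, took place in E. coli USO with a HIS3 reporter, site 19 bp from the promoter, over 48 hours at 37°C on M9-minus-histidine with 0.1 mM IPTG and 5 mM 3-AT.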

one-hybrid fitness for binding parS DNA, 0.419:
RARN

one-hybrid fitness for binding parS DNA, 0.87:
RHMT

one-hybrid fitness for binding parS DNA, 0.86:
RQLT

one-hybrid fitness for binding parS DNA, 0.765:
RMRA

one-hybrid fitness for binding parS DNA, 0.986:
RYLG

one-hybrid fitness for binding parS DNA, 0.32:
RGAA

one-hybrid fitness for binding parS DNA, 0.527:
RKVA

one-hybrid fitness for binding parS DNA, 0.583:
RSSA

one-hybrid fitness for binding parS DNA, 0.974:
RYCG

one-hybrid fitness for binding parS DNA, 0.788:
RRRN

one-hybrid fitness for binding parS DNA, 0.378:
RWHA

one-hybrid fitness for binding parS DNA, 0.936:
RIWC

one-hybrid fitness for binding parS DNA, 0.223:
ICGC

one-hybrid fitness for binding parS DNA, ≤ 0.2:
KNGP
LTNP
EGGM
ELER
EEWR
AGHW
PAYQ
EYMS
VGVR
GTKT
AICP
YCVM
MIFI
FAFG
GSYV
VKRR
QKKN
EMLS
KCAT
VHLS
KRWA
SPFG
GMDC
LRNW
LWFR
AHTP
LAKP
ASER
IYIG
GGKV
DHNK
LGAA
WPYC
EPMS
SAKR
KKRL
QSDF
LLED
TQRY
GLST
GKNR
AGLA
LWWT
PAMS
WMVC
LTYG
FIMG
PWWG
QWYA
RAFK
ATMK
IYDT
RPGG
RWAH
PTPM
LQGT
VRDA
TLTW
CLWC
MVTS
SQFT
QSVS
VGYS
YYFR
HVTY
HQER
LNYT
DWYR
ALNH
YENG
KRQF
HNRI
PGIE
WYTR
SLKR
TAQT
PVGV
FDLQ
KKES
YYEG
QYIT
AMNR
SLSN
KSDC
RAKE
ETIL
NSMV
GVRA
CITA
YTMT
IPRR
MLLI
LVHF
CRSP
KSAY
SPLA
VASF
SNML
HMSG
FPFC
HGDK
IKWG
ILHD
GRAA
RIQL
HEET
IQVL
ALHS
TQNC
SHVM
ANHG
YTCF
QSYT
FPGC
IYGV
IVWG
MPCT
DFSK
DCWR
QDDL
WGWR
GFKS
RRTP
CQPS
HRAK
ALCC
PHDP
TKSA
SPCH
PSFI
PYCN
GVCT
HGYM
DSPT
QSNY
QCGI
QHDP
NLNR
DQRR
CGLR
KMNR
GVEM
WMTY
LHYK
HTPV
PMGR
QSII
WEGG
KHYC
GTIR
FALV
VQFL
LVTQ
PPRW
PSAF
ERVF
FSAS
ETSI
GVLV
CVNW
ETLG
PFLD
WSWL
QREL
VDFS
QVTF
EGVG
HQSL
HWGA
NTMG
DFSH
ITPM
FCPG
PIVG
KLNI
SKSN
FTHL
CALH
GMDV
TPRY
SIPD
ISRI
EYAC
TTER
NHQR
NTCL
RKCE
SLAM
SLTN
YKRW
TRVI
APPG
KAWS
HDLM
LIYC
NDTI
LFNC
YEVP
QIVN
SHRV
SMHN
DNGT
TCDP
LGLY
NPST
QLFY
SLRE
MHRS
RSQV
CQQT
LKDR
WEHT
HSQM
HPLF
TSQQ
CKKC
RKGH
FCLC
CGLK
VERP
TDLS
WKKG
HMWS
HTHP
RTKD
TYPC
LNES
EYHC
PYKT
QMNY
VQYG
YLAQ
GPIC
WING
TMWS
HARR
QPRW
TFSW
TIKA
CCYG
STMG
ATPN
APWC
LQKD
LRIM
AIYR
LGDQ
FNHR
QVAW
SSPM
WCKT
TRVG
HIQG
ESPS
PVVE
ETIM
SSNV
DESI
EAGA
DDTL
YQKR
IGPS
YFTC
KITW
FQSN
EDMR
KVEE
QNWT
RSAR
TIHF
RWGN
RYAR
YQMG
AMTC
GDGR
EFDL
THPS
DGNP
TANL
PEDT
KPVV
VLIK
WPNG
PDTQ

one-hybrid fitness for binding parS DNA, 0.244:
NEGY

one-hybrid fitness for binding parS DNA, 0.376:
WDEV

one-hybrid fitness for binding parS DNA, 0.616:
RVWA

one-hybrid fitness for binding parS DNA, 0.248:
RMIF

one-hybrid fitness for binding parS DNA, 0.259:
RVLF

one-hybrid fitness for binding parS DNA, 0.607:
RLYA

one-hybrid fitness for binding parS DNA, 0.443:
RTVY

one-hybrid fitness for binding parS DNA, 0.643:
RMMA

one-hybrid fitness for binding parS DNA, 0.942:
RIVC
